Laboratory results from PubChem BioAssay AID488969 (Vanderbilt High Throughput Screening Facility, 2010).
Whole data set: some 110,000 compounds, median “z-score” near -0.1, cut for the highest 2% near 2. This is one part of the list.

biological target: Metabotropic glutamate receptor 8 (Rattus norvegicus) (UniProt P70579); assay: mGluR8 Gi/Go-coupled signaling modulation – cell-based, rat, thallium flux, HTS, primary screen (AID 488969); conditions: HEK293 rat mGluR8, GIRK (G protein-gated inwardly rectifying potassium channel) thallium flux, FluoZin2; at 10 µM; stronger effect = higher value
Chain of UniProt P70579 (P70579 whole entry, looked up): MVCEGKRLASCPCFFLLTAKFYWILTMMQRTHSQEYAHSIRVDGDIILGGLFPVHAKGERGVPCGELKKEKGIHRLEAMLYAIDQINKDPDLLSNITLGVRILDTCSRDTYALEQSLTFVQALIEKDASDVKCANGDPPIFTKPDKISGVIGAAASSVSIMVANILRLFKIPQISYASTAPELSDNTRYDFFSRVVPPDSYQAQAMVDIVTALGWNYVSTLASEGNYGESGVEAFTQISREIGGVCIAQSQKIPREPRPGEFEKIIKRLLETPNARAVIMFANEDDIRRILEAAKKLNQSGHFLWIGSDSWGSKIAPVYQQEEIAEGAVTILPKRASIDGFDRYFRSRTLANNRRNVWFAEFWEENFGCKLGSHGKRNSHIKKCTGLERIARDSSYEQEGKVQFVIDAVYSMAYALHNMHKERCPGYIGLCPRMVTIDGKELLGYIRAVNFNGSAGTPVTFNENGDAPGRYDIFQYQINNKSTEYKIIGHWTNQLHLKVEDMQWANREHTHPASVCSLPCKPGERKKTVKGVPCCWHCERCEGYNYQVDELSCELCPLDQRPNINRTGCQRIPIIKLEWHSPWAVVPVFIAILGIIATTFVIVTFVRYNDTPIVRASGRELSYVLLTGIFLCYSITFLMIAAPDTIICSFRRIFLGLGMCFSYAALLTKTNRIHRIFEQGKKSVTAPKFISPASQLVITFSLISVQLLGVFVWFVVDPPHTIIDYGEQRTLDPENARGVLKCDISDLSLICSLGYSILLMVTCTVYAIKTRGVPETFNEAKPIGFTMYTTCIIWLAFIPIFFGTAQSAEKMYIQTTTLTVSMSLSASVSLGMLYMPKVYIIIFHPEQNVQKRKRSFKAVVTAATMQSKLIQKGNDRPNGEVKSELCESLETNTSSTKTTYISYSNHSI

Row | SMILES | z-score
1 | COc1cc(OC)cc(C(=O)Nc2ccc(Br)cc2C(=O)c2ccccc2)c1 | -0.0953
2 | COc1cccc(-c2cc(C(F)(F)F)n3nc(C(=O)N4CCC5(CC4)OCCO5)cc3n2)c1 | 0.0542
3 | O=C(c1ccc(CNS(=O)(=O)c2ccccc2)cc1)N1CCC2(CC1)OCCO2 | 0.184
4 | CN(Cc1ccccc1)Cc1ccccc1OC(=O)N(C)C | -0.21
5 | CCCCc1ccc2[nH]cc(CCN)c2c1 | 0.376
6 | CN(C)c1ccc(NC(=O)CN2C(=O)CN=C(c3ccccc3)c3cc(Cl)ccc32)cc1 | 0.103
7 | COC(=O)C(O)(c1ccc(NC(=S)NC(=O)c2ccccc2)cc1)C(F)(F)F (stereo not given) | 0.443
8 | Cc1nc2ccccc2c(=O)n1-c1ccccn1 | -0.0538
9 | CN(C)c1ccc(/C=C2/C(=O)NC(=O)N(Cc3ccco3)C2=O)cc1 | 0.552
10 | N/C(=N\N=C\c1ccc(O)cc1O)N[N+](=O)[O-] | 0.414
11 | COc1ccc2c(c1)CC1(CN2C)C(=O)NC(=O)N(c2ccc(F)cc2)C1=O (stereo not given) | -0.434
12 | CCN(CC)C(=O)c1ccc(NC(=O)COc2ccc([N+](=O)[O-])cc2Cl)cc1 | -0.846
13 | Fc1ccc(CCNCc2ccc(Cl)c(Cl)c2)cc1 | -0.101
14 | COC(=O)C(O)(c1ccc(NC(=O)c2ccco2)c(OC)c1)C(F)(F)F (stereo not given) | -0.349
15 | COc1ccc(OCC(=O)N2CCN(C(C)C)CC2)cc1 | -0.168
16 | CN1CCN(c2ccc([N+](=O)[O-])c(NCC3CCCO3)c2)CC1 (stereo not given) | -0.11
17 | Cc1cccc(N2C(=O)NC(=O)C3(Cc4cc(C)ccc4N(C)C3)C2=O)c1 (stereo not given) | 0.723
18 | O=C(NCc1cccnc1)NC1CCCCC1 | -0.67
19 | CNC(C)Cc1ccccc1Sc1ccc(O)cc1 (stereo not given) | 0.806
20 | Clc1ccc(-c2nc3ccc(Cl)cn3c2CN2CCOCC2)cc1 | -0.662
21 | O=C(Nc1ccc(C(F)(F)F)cc1)c1cccn(Cc2ccc3c(c2)OC(F)(F)O3)c1=O | 0.0692
22 | CC(C)N1CCC2(CC1)NC(CO)(CO)CO2 | 0.413
23 | C=CCn1c(O)c(C(C)=NCCC2=CCCCC2)c(=O)[nH]c1=O | 1.62
24 | O=C1CC(N2CCC(n3c(=O)[nH]c4ccccc43)CC2)C(=O)N1c1ccc(F)cc1 (stereo not given) | -0.362
25 | O=c1c2ccccc2nc(-c2ccc(Cl)cc2Cl)n1-c1nccs1 | -0.267
26 | Clc1ccccc1CN1CCN(c2ccccc2)CC1 | 0.284
27 | O=C(Cc1ccccc1)N1CCN(Cc2ccccn2)CC1 | -0.0688
28 | COc1ccc(CCN(C)Cc2ccc(F)cc2F)cc1OC | 1.31

Row | SMILES | z-score
29 | Cc1onc(-c2ccccc2)c1C(=O)N1CCC2(CC1)OCCO2 | 0.5
30 | CC1(C)N(O)C2CCCCC2N1O (stereo not given) | -0.159
31 | NC(=S)N/N=C/c1coc2ccccc2c1=O | -0.742
32 | CCOP(=O)(OCC)C(CC)N1CCOCC1 (stereo not given) | 0.87
33 | CCCCC1(CCCC)C(=O)NC(=Nc2cccc(C)c2)NC1=O | -0.0837
34 | CCOC(=O)CC1=C(C(=O)OCC)C2(C(=O)Nc3ccccc32)C(C#N)=C(N)O1 (stereo not given) | 0.195
35 | CC1CCN(CC(=O)c2ccccc2Cl)CC1 | -0.387
36 | Cc1ccc2c(c1)C1CN(C)CCC1N2C(=O)c1ccc(Br)o1 (stereo not given) | -0.216
37 | CC1CN(O)C2CCc3c(no[n+]3[O-])C12O (stereo not given) | -0.143
38 | Cn1c[n+](C)cc1C(O)c1ccccc1 (stereo not given) | -0.156
39 | CCN(CC)c1ccc(N=Cc2c(O)n(-c3cc(OC)ccc3OC)c(=O)[nH]c2=O)cc1 | -0.4
40 | Cc1cc(C(=O)N=Nc2c(O)n(C)c3ccccc23)c(C)o1 | 0.229
41 | Cc1cc([N+](=O)[O-])c(Cl)cc1NC(=O)C(C)C | -0.0536
42 | Cn1c2ccccc2c2cnn(CC(=O)N3CCC4(CC3)OCCO4)c(=O)c21 | 0.199
43 | Cc1c(N=Cc2c(O)n(Cc3ccco3)c(=O)[nH]c2=O)c(=O)n(-c2ccccc2)n1C | -0.625
44 | O=C(COc1ccc(Br)cc1)N1CCN(Cc2ccncc2)CC1 | 0.813
45 | COc1ccc(C(CC(=O)N2CCC3(CC2)OCCO3)NS(=O)(=O)c2ccc(F)cc2)cc1 (stereo not given) | -0.351
46 | CCCCSP1(=S)NCCCO1 (stereo not given) | -0.205
47 | COc1cc(N2CCOCC2)ccc1/C=C1\C(=O)NC(=O)N(C2CCCCC2)C1=O | -0.196
48 | N#Cc1ccc(N2CCNCC2)c(F)c1 | 0.268
49 | CCOC(=O)C(O)(c1ccc(N(CC)S(=O)(=O)c2ccc(C)cc2)cc1)C(F)(F)F (stereo not given) | 2.37
50 | C=CCn1c(O)c(C=Nc2ccc(N(CC)CC)cc2)c(=O)[nH]c1=O | -0.521
51 | COC(=O)c1ccc(COc2cc(C)cc3oc(=O)c4c(c23)CCCC4)o1 | -1.28
52 | N#Cc1cc2c(nc1SCC(=O)Nc1ccc(Cl)cc1)C1CCN2CC1 | -0.826
53 | CCOC(=O)c1c(-n2c(C)cc(/C=C3\C(=O)NC(=O)N(C)C3=O)c2C)sc2c1CCCC2 | -1.11
54 | O=C1NC(=O)C(CCc2ccccn2)(Cc2ccc3c(c2)OCO3)C(=O)N1CCc1ccccc1 (stereo not given) | -0.603
55 | c1ccc(-c2[nH]c[n+](CC3CO3)c2-c2ccccc2)cc1 (stereo not given) | -0.103
